# PubChem BioAssay AID662 (National Center for Advancing Translational Sciences (NCATS), 2007)
# Where “and” joins values, the source holds several entries; their conditions need not be identical. Identical values can stand only once. Hit rate of the full screen: of about 71,000 compounds, about 1,800 (2.5%) were called active. Inconclusive means that the source gave no clear call. Such entries were picked first, then a sample of the others. Calls follow the shape of the dose curve; as a rule, active = well fitted activation curve with a large enough effect in the signal ratio, with a control signal flat (not every such curve was filed as active); inconclusive = small, poorly fitted or top-dose-only effect, or effect the other way, or a change in a side signal; inactive = flat fitted curve, though single readings scatter; the % refers to the signal ratio. Where the call is inconclusive, the potency comes from a doubtful curve fit.
# Assay: Cell signaling CRE-BLA (Fsk stim); as to activity change, negative = inhibition: % of control where 0% means no effect
# Conditions: CHO CRE-bla reporter (cAMP response element driving beta-lactamase), forskolin EC10, beta-lactamase ratio; activity change, negative = inhibition: at 38.2 µM (top of the series) unless noted
# Procedure, shortened: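 CHO CRE-bla cells, overnight plating in Opti-MEM with 0.5% dialyzed FBS; cpd titration + EC10 NKH 477, 3 h 37 °C; CCF4 2 h RT; ex 405/em 460 vs 530 ratio → %Activity, AC50.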
# Potency is read from the fitted curve at half-maximal effect; tags tell the direction and shape of the fitted curve.
Compound,"activity change, negative = inhibition",Potency
O=S(=O)(O)n1ccnc1 (tested in a mixture with another compound),inactive: 9.3% [at 7.6 µM],–
Cc1ccc2nsnc2c1S(=O)(=O)N1CCN(CCc2ccccc2)CC1,inconclusive: -1.92%,–
COC(=O)c1c(NC(=O)CCCC(=O)O)sc(C)c1C,–,"inconclusive: 10 µM [rising, single point]"
C=CCn1c(SCn2nnc3ccccc3c2=O)nnc1C1CCCCC1,–,"inconclusive: 3.98 µM [rising, single point]"
CCN(CC)CCN1C(=O)C(O)=C(C(=O)c2ccc(C)o2)C1c1ccccn1 (centres undefined),inconclusive: 5.9%,–
CCCc1nc(SC2CCCC2)c2c(=O)n(C)c(=O)n(C)c2n1,–,active: 2.51 µM
Fc1cnc(N2CCOCC2)nc1N1CCc2ccccc21,–,"inconclusive: 15.8 µM [rising, single point]"
C=CCn1c(SCC(=O)c2ccc(O)c(O)c2)nnc1-c1ccccc1OC,–,"inconclusive: 5.01 µM [falling, partial curve]"
Clc1ccc(Cl)c(Nc2ccnc(SCc3ccccc3)n2)c1,inconclusive: 22.4% [at 7.6 µM],–
CCCCCc1c(O)c2ccccc2[nH]c1=O,inactive: -1.92%,–
CCn1c(SC/C=C/c2ccccc2)nnc1-c1cccs1,inconclusive: 3.68%,–
CN(C)C(=O)c1ccc(-c2cncnc2NC2CCNCC2)cc1,inconclusive: 8.99%,–
CC(C)C(=O)N1CCC(CN=Cc2c(O)n(C3CCCCC3)c(=O)n(C3CCCCC3)c2=O)CC1,inconclusive: -1.11% [cytotoxic],–
CCCCCCCCCCCCCCCCCC(=O)O[C@H](CC(=O)O)C[N+](C)(C)C,–,"inconclusive: 12.6 µM [falling, single point]"
O=C(c1ccncc1)N1CCC[C@@]2(CCN(Cc3cc(C(F)(F)F)cc(C(F)(F)F)c3)C2)C1,inactive: -11.6%,–
Cc1cc(=S)[nH]c2ccccc12,inconclusive: 27.3%,–
CCc1cc(C(N)=S)ccn1,–,inactive
CCOC(=O)C1CCCN(C(=O)c2cncc(Br)c2)C1 (centres undefined),–,"inconclusive: 1 µM [falling, full curve, poor fit]"
Cc1noc(C)c1-c1nccc(N2CCOCC2)n1,–,"inconclusive: 10 µM [rising, single point]"
Cc1cc(N2CCOCC2)c2c(N)c(Br)cc(C)c2n1,–,active: 0.794 µM
CCOc1ccc(Nc2oc(-c3ccco3)nc2C#N)cc1,–,"inconclusive: 3.16 µM [rising, single point]"
Fc1ccc(Cn2nnnc2CN2CCN(C3CCCC3)CC2)cc1,inactive: -2.04%,–
CC1CN(c2ccccc2)C(=O)CS1 (centres undefined),inconclusive: -13.6%,–
Cn1cccc1-c1nc2ccc(NC(=O)c3cccs3)cc2[nH]1,inactive: 27.5%,–
O=C(O)CN(CCN(CC(=O)O)CC(=O)O)CC(=O)O.[Cu],–,"inconclusive: 3.16 µM [rising, partial curve]"
CCc1cc2c(=O)c(-c3ccc4c(c3)OCCO4)coc2cc1OC(=O)c1ccco1,inactive: -4.38%,–
CCCCn1c(=O)n(C)c(=O)c2c(C(F)(F)F)cc(-c3ccncc3)nc21,–,"inconclusive: 1.58 µM [rising, partial curve]"

Compound,"activity change, negative = inhibition",Potency
Cc1cc2cc(CCNC(=O)c3c(-c4ccccc4Cl)noc3C)c(=O)[nH]c2cc1C,inconclusive: 29.1%,–
Nc1c(C(=O)OCC2CCCO2)c2nc3ccccc3nc2n1C1CCCCC1 (centres undefined),inconclusive: 28.5%,–
COc1ccc(-c2nc(C#N)c(NC(C)C)o2)cc1,inconclusive: 36.7%,–
Cc1ccc(S(=O)(=O)Nc2cccc3ncccc23)s1,inconclusive: -10.4%,–
CCCCCCOC(=O)NCC(O)c1ccccc1 (centres undefined),inactive: 0.923%,–
N#Cc1nc(-c2ccc(Cl)cc2)oc1NCc1ccco1,inconclusive: 18.7%,–
COc1cc(OC)c(/C=C2/C(=O)Nc3ccccc32)c(OC)c1,–,"inconclusive: 10 µM [rising, partial curve]"
Cn1c2ccccc2c2c(C(=O)N3CCN(c4ccccn4)CC3)cn(C3CCCC3)c(=O)c21,–,"inconclusive: 10 µM [rising, partial curve]"
OCCNc1nc(-c2cccnc2)nc2ccccc12,–,active: 3.98 µM
c1ccc2c(c1)nnn2Cc1nnc2sc(-c3ccc4c(c3)OCCO4)nn12,inactive: 12.8%,–
Cc1ccccc1-n1c(=O)cc(NCc2ccc3c(c2)OCO3)[nH]c1=O,inconclusive: -28.6%,–
C=CCNC(=O)CN(c1cccc(Br)c1)S(C)(=O)=O,inconclusive: 3.94% [at 7.6 µM],–
CCn1ncc(Br)c1C(=O)N(C)C12CC3CC(CC(C3)C1)C2,inconclusive: -1.89%,–
COc1ccc2c(c1)CCc1c(C(=O)Nc3c(C)n(C)n(-c4ccccc4)c3=O)noc1-2,inconclusive: -3.62%,–
CN(Cc1ccco1)c1ncnc2ccc(-c3cccc(NS(C)(=O)=O)c3)cc12,–,active: 1.26 µM
O=c1c(CCc2ccccc2)nc2cnc(Nc3ccccc3)nc2n1C[C@H]1CCCO1,–,"inconclusive: 3.16 µM [rising, full curve]"
O=C(NCC1CCCO1)c1coc2nc3ccccc3nc12 (centres undefined),–,"inconclusive: 10 µM [rising, partial curve]"
Cn1cc(C2=C(c3ccc(Cl)cc3Cl)C(=O)NC2=O)c2ccccc21,–,"inconclusive: 2.51 µM [falling, full curve] and inconclusive: 6.31 µM [falling, full curve]"
COc1cc2c(C(=O)NCc3ccc(C)o3)cn(CC(C)C)c(=O)c2cc1OC,–,"inconclusive: 3.98 µM [rising, partial curve]"
COCCNC(=O)C1(CC(C)C)C=CCN1C(C)=O (centres undefined),inactive: -3.49%,–
CCCN1Cc2cccc(C(=O)NCc3cccs3)c2C1=O,–,"inconclusive: 20 µM [rising, single point]"
COCCNS(=O)(=O)c1cc(-c2nn(C)c(=O)c3ccccc23)ccc1C,–,active: 12.6 µM
CN(C)CC(C)(C)CN1c2ccccc2Sc2ccccc21,inactive: -9.56% [at 7.6 µM],–
COCCn1c(=O)c(-c2cc(F)cc(F)c2)nc2cnc(Oc3cccc(Cl)c3)nc21,–,"inconclusive: 20 µM [rising, single point]"
c1ccc([P+](CC[P+](c2ccccc2)(c2ccccc2)c2ccccc2)(c2ccccc2)c2ccccc2)cc1,inactive: -9.53% [at 7.6 µM],–
COc1cc(C(=O)OC(C)CN2CCCC2)cc(OC)c1OC (centres undefined),inactive: 4.48%,–
O=C(c1ccccc1)c1cccn1CC(=O)N1CCCCCC1,inconclusive: 10.2%,–

Compound,"activity change, negative = inhibition",Potency
CCOc1ccc(C(=O)OCc2nnc(-c3cccs3)o2)cc1OC,–,"inconclusive: 20 µM [rising, single point]"
COc1ccc(-c2noc(CCCc3ccccc3)n2)cc1OC,–,"inconclusive: 7.94 µM [rising, partial curve]"
Cc1cccn2c(=O)c3cc(C(=O)NCc4ccco4)c(=N)n(CCc4ccccc4)c3nc12,inconclusive: -14.3% [fluorescent],–
O=C(CN1CCN(c2ccccc2)CC1)Nc1c(C(=O)C2CC2)oc2ccccc12,inconclusive: 28.5%,–
COc1ccc2c(c1)c(=O)oc1cc(OCC(=O)N3CCC(C)CC3)ccc12,–,"inconclusive: 2 µM [rising, full curve, poor fit]"
COc1ccc(-c2nc3cnc(OC)nc3n(-c3ccccc3)c2=O)cc1,–,"inconclusive: 2.51 µM [rising, full curve, poor fit]"
COCCCNC(=O)c1ccccc1NS(=O)(=O)c1ccc(C)cc1,inactive: 10.9%,–
Cn1c(-c2c(N)n(C3CCCC3)c3nc4ccccc4nc23)nc2ccccc21,–,"inconclusive: 2.51 µM [falling, partial curve]"
CCCC1(c2ccccc2)NC(=O)N(CC(=O)c2[nH]c(C)c(C(=O)OCC)c2C)C1=O (centres undefined),–,active: 10 µM
CC(C)Nc1nc(NC(C)C)nc(Oc2ccc(/C=N/O)cc2)n1,–,"inconclusive: 10 µM [rising, partial curve]"
NC(=O)C1CCN(C(=O)CCCCCn2c(=O)[nH]c3ccsc3c2=O)CC1,inconclusive: -1.61%,–
O=C1c2ccccc2-c2nc3ncnn3c(-c3ccccc3Cl)c21,–,active: 12.6 µM
CCCn1c(=O)c(C(=O)Nc2ccccc2C(=O)OC)c(O)c2ccccc21,inconclusive: 27.7%,–
CC(=O)Nc1ccc(N=Cc2nc(-c3ccc(C)cc3)oc2O)cc1,inconclusive: 20.4%,–
O=C(Nc1ccc2c(c1)nc1n2CCSC1)c1ccccc1,inactive: 9.56%,–
CCOC(=O)c1cccc(NC(=O)CSc2nc3ccccc3c(=O)n2CCOC)c1,–,active: 3.16 µM
CC(C)CN1CCCC2(CCN(C(=O)c3cc(C(F)(F)F)cc(C(F)(F)F)c3)CC2)C1,inactive: -20.2%,–
O=C(Nc1cccnc1N1CCOCC1)c1ccco1,–,"inconclusive: 12.6 µM [rising, single point]"
COc1ccccc1-c1cc(-n2ccnc2)ncn1,–,"inconclusive: 12.6 µM [rising, partial curve]"
COc1ccc(-c2nnc(SCc3cccc(C#N)c3)o2)cc1,inconclusive: 23.9%,–
O=C(Nc1ccc2oc(-c3ccccc3)nc2c1)c1cccnc1,–,"inconclusive: 12.6 µM [rising, partial curve]"
COc1cc2c(cc1OC)/C(=C/C(=O)N1CCOCC1)NC(C)(C)C2,–,active: 5.01 µM
Cc1cccc(Nc2cc(Cl)nc(SCC(=O)O)n2)c1C,inconclusive: -14.9%,–
Cc1ccc(-c2nn(-c3ccccc3)c3[nH]c(=O)c(CNCCN(C)C)cc23)cc1,inconclusive: 8.23%,–
FC(F)(F)c1nc2nc(Cl)c(Cl)nc2n1CCCN1CCOCC1,–,"inconclusive: 5.01 µM [rising, single point]"
